Experimental findings from PubChem BioAssay AID2202238 (Ras Initiative Chemistry Research Team, Frederick National …, 2025) are described below.

Hit rate of the full screen: of about 2,200 compounds, fewer than 10 were called active. The list shows a part of the results. Entries without a call are filed as inconclusive in the source.

The target in this experiment is GTPase KRas (Homo sapiens) (UniProt P01116). In words: Covalent labelling of cysteine mutants by fragments, read by mass spectrometry (AID 2202238). Further details: protein at 5 µM with 500 µM competing thiol for 1.5 h. The following applies: KRAS G12D cysteine mutants, disulfide tethering, MALDI-TOF labeling; stronger effect = higher value; H27C mutant labeling; fragment at 500 µM.
UniProt P01116, sequence (P01116 whole entry, looked up, the tested form may be a part): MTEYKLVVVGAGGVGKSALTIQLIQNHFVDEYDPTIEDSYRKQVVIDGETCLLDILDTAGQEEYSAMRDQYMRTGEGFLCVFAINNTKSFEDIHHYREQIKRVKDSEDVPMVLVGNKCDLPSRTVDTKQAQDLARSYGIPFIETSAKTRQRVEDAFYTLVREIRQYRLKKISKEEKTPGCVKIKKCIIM
Turning to `O=C(CCS)N(c1ccc(F)cc1)C1CCC1`, the percent labeling stood at 28%.

Take `O=C(NCCS)C1CC(=O)N(CCc2ccc(F)cc2)C1` (stereo unspecified): the percent labeling worked out at 37.6%.

With `COc1nc(C)ccc1CNC(=O)CCS`, the percent labeling worked out at 40.2%.

Molecule `O=C(CCS)NCc1ccc(CN2C(=O)CNC2=O)cc1` yielded a percent labeling of 46.4%.

In turn, `O=C(NCCS)c1ncoc1-c1ccc(F)cc1` came in with a percent labeling of 23.8%.

The molecule `O=C(NCCS)c1csc(COc2ccc(F)cc2)n1` yielded a percent labeling of 27.5%.

Take `Cc1nc(C(=O)N2CCC(C(=O)NCCS)CC2)c(C)o1`: the percent labeling is 42.3%.

The molecule `CC(C(=O)NCCS)N1CCCCCC1` (stereo unspecified) gave a percent labeling of 49.1%.

Consider `O=C(NCCS)C1CCCc2sc(Nc3ccccc3)nc21` (stereo unspecified), for which the percent labeling amounted to 19.4%.

Turning to `CC(C)(Oc1c(F)cccc1F)C(=O)NCCS`, the percent labeling was found to be 33.9%.

The molecule `CC(=O)N1CCc2cc(C(=O)NCCS)ccc21` came in with a percent labeling of 40.5%.

The molecule `O=C(CCS)Nc1ccccc1-c1ncc2n1CCCC2` yielded a percent labeling of 42.5%.

On to `CN1CCN(CCc2cccc(NC(=O)CCS)c2)CC1`, for which the percent labeling is 56.2%.

As to `O=C(NCCS)c1cc2scc(Br)c2s1`, the percent labeling was found to be 30%.

`Cc1nn(C(C)(C)C)c2nc(C(C)C)cc(C(=O)NCCS)c12`: the percent labeling stood at 13.9%.

`O=C(NCCS)c1ncccc1Br` registered a percent labeling of 33%.

`CC1(C(=O)NCCS)CCN(c2ccc(Cl)cc2C#N)CC1` yielded a percent labeling of 21.5%.

Molecule `O=C(CCS)NCc1cccnc1Oc1cccc(F)c1` had a percent labeling of 44.1%.

Take `Cc1c(NC(=O)CCS)cnn1CC(C)(C)O`: the percent labeling was found to be 31.2%.

For the molecule `Cc1ccc(NC(=O)CCS)cc1N1C(=O)CNC1=O`, the percent labeling amounted to 48.5%.

Turning to `O=C(NCCS)C1CCN(C(=O)C2CCCCC2)CC1`, the percent labeling is 32.1%.

The molecule `O=C(CCS)N1CCn2c(CC3CC3)nnc2C1` came in with a percent labeling of 29.3%.

Molecule `COc1cc[nH]c(=O)c1CNC(=O)CCS` displayed a percent labeling of 30.5%.

In turn, `Cc1ccn(C2CCN(C(=O)CCS)CC2)n1` displayed a percent labeling of 34.3%.

As to `COC(=O)c1sc2c(c1Br)CN(C(=O)CCS)C2`, the percent labeling is 38.8%.

In turn, `Cc1cccc(Oc2ccc(NC(=O)CCS)c(C)n2)c1C` registered a percent labeling of 36.1%.

`COc1cccc(-n2cc(NC(=O)CCS)nn2)c1` gave a percent labeling of 29.3%.

`O=C(Cc1cccc(OCC(F)(F)F)c1)NCCS` gave a percent labeling of 24.9%.

Molecule `Cc1cn(CC(=O)NCCS)nc1C(F)(F)F` yielded a percent labeling of 28.8%.

Consider `O=C(NCCS)c1nn2c(c1Br)CCC2`, for which the percent labeling worked out at 38.3%.

Regarding `COc1ccccc1OCCC(=O)NCCS`, the percent labeling was found to be 32.7%.

In the case of `CCc1[nH]cnc1C(=O)NCCS`, the percent labeling came out at 33.1%.

Regarding `Cc1cc(C(=O)NCCS)nc(C(F)(F)F)n1`, the percent labeling amounted to 35.7%.

Take `O=C(NCCS)c1c(F)cccc1-n1cccn1`: the percent labeling worked out at 27.4%.

Take `O=C(NCCS)C1(c2nccc3ccccc23)CC1`: the percent labeling was determined as 39.1%.

Regarding `CCn1c2ccccc2c2cc(CN(C)C(=O)CCS)ccc21`, the percent labeling came to 22.9%.

Turning to `O=C(NCCS)[C@@H]1CCCC[C@@H]1C(F)(F)F`, the percent labeling was determined as 27.2%.

In turn, `O=C(CCS)NC1CC12CCc1cc(Br)ccc12` (stereo unspecified) came in with a percent labeling of 29.9%.

As to `CC(C)(C)Cn1c(=O)[nH]c2c(C(=O)NCCS)cccc21`, the percent labeling is 34.1%.

In the case of `Cc1cnn(-c2cccc(C(=O)NCCS)c2)c1`, the percent labeling came to 28.2%.

In the case of `CCN(CC(=O)Nc1ccccc1C(F)(F)F)C(=O)CCS`, the percent labeling stood at 41.2%.

Regarding `O=C(CCS)NCC1CN(C2CC2)C(=O)O1` (stereo unspecified), the percent labeling came to 26.9%.

In turn, `CCOc1cc(C#N)cc(Br)c1OCC(=O)NCCS` came in with a percent labeling of 24.2%.

`Cn1ncc2nc(C(F)F)c(NC(=O)CCS)cc21` registered a percent labeling of 45.7%.

`O=C(NCCS)C1CN(C(=O)C2CCCCC2)C1`: the percent labeling stood at 28.7%.

The molecule `Cc1noc(CC2(NC(=O)CCS)CC2)n1` showed a percent labeling of 26.7%.

In turn, `O=C(NCCS)c1cccc(Nc2ncnc3ccccc23)c1` gave a percent labeling of 31.9%.

Turning to `O=C(CCS)NCc1ccnn1C1CCCCC1`, the percent labeling turned out to be 34.8%.

Take `Cc1nc2cc(F)c(F)cc2n1CC(=O)NCCS`: the percent labeling came to 49.8%.

`O=C(NCCS)C1CC12CCc1cc(Br)ccc12` (stereo unspecified) had a percent labeling of 30.1%.

As for `Cn1nc(C(=O)NCCS)cc1-c1ccc(Cl)cc1`, the percent labeling was determined as 23.3%.

Molecule `CCn1cccc(CNC(=O)CCS)c1=O` gave a percent labeling of 32.7%.

Turning to `COc1cc2c(cc1OC)CN(CC(=O)NCCS)CC2`, the percent labeling was 41.3%.

As for `O=C(NCCS)C1CCN1C1CCCC1` (stereo unspecified), the percent labeling came out at 40.4%.

Molecule `CC1(C(=O)NCCS)CCCN(C(=O)c2ccccc2)C1` (stereo unspecified) yielded a percent labeling of 40.4%.

`COc1cc(N2CCN(C(=O)CCS)CC2)ccc1O` came in with a percent labeling of 20.4%.

`COc1ccc2c(c1)CCC(C(=O)NCCS)C2` (stereo unspecified) showed a percent labeling of 31%.

`N#Cc1cc2c([nH]c1=O)CCN(C(=O)CCS)C2` displayed a percent labeling of 34.2%.

`COc1cc2ccccc2c(NC(=O)CCS)n1` had a percent labeling of 37.2%.

In turn, `CCc1cc(OC)c(CC2(NC(=O)CCS)CC2)cc1OC` gave a percent labeling of 35.4%.

With `O=C(NCCS)C1CC=CCC1C(=O)NC1CC1` (stereo unspecified), the percent labeling was determined as 18.8%.

In turn, `O=C(Nc1ccc(F)cc1)NC1CCN(C(=O)CCS)CC1` yielded a percent labeling of 36.9%.

Molecule `CC1(CC2CCCN2C(=O)CCS)NC(=O)NC1=O` (stereo unspecified) had a percent labeling of 41.9%.

Turning to `O=C1CC(C(=O)NCCS)c2ccc(F)cc2N1` (stereo unspecified), the percent labeling is 42.3%.

As to `COc1ccc(CCC(=O)NCCS)cc1Cl`, the percent labeling is 25.3%.

In turn, `O=C(NCCS)[C@@H]1C[C@]12CCOc1ccc(Cl)cc12` yielded a percent labeling of 29.5%.

Molecule `Cc1nc2ncc(C(=O)NCCS)cc2[nH]1` displayed a percent labeling of 47.9%.

Turning to `O=C(CC(c1ccc(Cl)c(Cl)c1)N1CCOCC1)NCCS` (stereo unspecified), the percent labeling came to 32.5%.

`O=C(NCCS)C1CCCN1C(=O)c1cncn1-c1ccccc1` (stereo unspecified): the percent labeling was 30.2%.

As for `O=C(NCCS)c1cc(Nc2ccccc2)ncn1`, the percent labeling turned out to be 24%.

`Cn1nc(NC(=O)CCS)cc1CN1CCOCC1` registered a percent labeling of 37.4%.
